Source: PubChem BioAssay AID1030 (National Center for Advancing Translational Sciences (NCATS), 2008)
In all, about 220,000 compounds went through this assay and about 16,000 (7.3%) were called active. The inconclusive results got no clear call from the source; some entries with a clear call stand among them for comparison. Calls follow the shape of the dose curve; as a rule, active = well fitted inhibition curve with a large enough effect (not every such curve was filed as active); inconclusive = small, poorly fitted or top-dose-only effect, or another doubt; inactive = no such curve, though single readings can be large or run the other way. No potency is given beside an inconclusive call; the fits are too rough.

These compounds were tested against Aldehyde dehydrogenase 1A1 (Homo sapiens) (UniProt P00352) (assay: qHTS Assay for Inhibitors of Aldehyde Dehydrogenase 1 (ALDH1A1)). Conditions: Purified ALDH1A1, NADH fluorescence, propionaldehyde substrate; series mostly up to 75.3 µM; activity, negative = inhibition: at the top concentration.
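For activity, negative = inhibition in this document: plate controls were no enzyme wells and a reference inhibitor.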
Potency is read from the fitted curve at half-maximal effect; tags tell the direction and shape of the fitted curve.

Chain of UniProt P00352 (P00352 whole entry, looked up): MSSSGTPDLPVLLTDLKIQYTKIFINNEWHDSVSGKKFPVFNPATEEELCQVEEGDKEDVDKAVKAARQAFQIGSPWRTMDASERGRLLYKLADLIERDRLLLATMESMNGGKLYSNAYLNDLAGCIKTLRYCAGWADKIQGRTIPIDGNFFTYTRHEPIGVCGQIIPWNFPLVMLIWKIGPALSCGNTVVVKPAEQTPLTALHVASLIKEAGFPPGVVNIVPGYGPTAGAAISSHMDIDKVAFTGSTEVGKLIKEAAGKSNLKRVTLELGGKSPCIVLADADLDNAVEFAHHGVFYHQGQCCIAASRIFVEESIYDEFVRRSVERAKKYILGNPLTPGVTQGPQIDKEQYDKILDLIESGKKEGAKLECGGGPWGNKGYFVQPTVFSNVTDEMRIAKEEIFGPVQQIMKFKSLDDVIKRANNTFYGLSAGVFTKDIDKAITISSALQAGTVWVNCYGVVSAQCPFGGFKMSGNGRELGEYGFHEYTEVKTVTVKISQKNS

COc1cc(/C=C2/C(=O)ON=C2c2ccccc2)ccc1O was tested. Which Potency did it give?
Its Potency is inconclusive [inhibitor, single point].

Cc1cccc(NC(=S)NC(=O)c2ccc(Br)o2)c1C was tested. Which Potency did it give?
The Potency was inconclusive [inhibitor, single point].

Which Potency does the source give for COc1ccc(NC(=O)C(=O)N2N=C3CCCCC3C2(O)C(F)(F)F)cc1 (stereo unspecified) here?
The Potency was active: 2.82 µM.

For O=C(CC(C(=O)O)c1ccccc1)Nc1cccc2ccccc12 (stereo unspecified), which “activity, negative = inhibition” value is on record?
Its value is inactive: 21.4%.

Nc1c(C(=O)O)cnc2nc(N3CCOCC3)nn12 was tested. Which Potency did it give?
The Potency was inconclusive [inhibitor, single point].

Which activity, negative = inhibition does the source give for CCCNC(=O)OC[C@@H]1O[C@H](CCO/N=C(\C)CCN2CCc3nc(-c4ccccc4)c(-c4ccccc4)cc3C2)C=C[C@@H]1Oc1ccc(OC)cc1 here?
The activity, negative = inhibition was inactive: 1.88% [at 13.5 µM].

COc1cc2c(cc1OC)CN(Cc1ccc(C)s1)CC2 was tested. Which Potency did it give?
The Potency was active: 28.2 µM.

How did the Potency turn out when O=C(Nc1nnc(-c2cccs2)s1)C1CC1 was run?
Its Potency is inconclusive [inhibitor, single point].

How did the Potency turn out when O=[N+]([O-])c1ccc(-c2c[nH]c(=S)[nH]2)cc1 was run?
The Potency was active: 0.501 µM.

For COc1ccc(CSc2nncn2C)cc1[N+](=O)[O-], which Potency is on record?
The Potency was active: 20 µM.

Which Potency does the source give for CC1(C(=O)O)Sc2[nH]c(=O)sc2C2c3ccccc3OC(=O)C21 (stereo unspecified) here?
Its Potency is inconclusive [inhibitor, partial curve].

COc1ccc(CNC(=O)CN2CCN(S(=O)(=O)c3cccs3)CC2)cc1OC was tested. Which Potency did it give?
Its Potency is active: 11.2 µM.

Which Potency does the source give for Cc1cccc(N=c2oc3cc(O)ccc3cc2C(N)=O)c1 here?
Its Potency is inconclusive [inhibitor, partial curve].

Which “activity, negative = inhibition” value does the source give for COc1ccc(OCC(=O)OCCN2C(=O)c3ccccc3C2=O)cc1 here?
Its value is inactive: -27.9%.

COC(=O)CN1C(c2ccc(Cl)cc2)=Nc2ccc(Cl)cc2C1c1ccccc1 (stereo unspecified) was tested. Which Potency did it give?
The Potency was inconclusive [inhibitor, single point].

For CC(C)(C)NC(=O)C(c1ccncc1)N(C(=O)Cn1nnc(-c2ccc(F)cc2)n1)c1ccccc1 (stereo unspecified), which Potency is on record?
Its Potency is active: 3.16 µM.

With O=C(CN1C(=O)c2ccccc2C1=O)[C@@H](O)CN1C(=O)c2ccccc2C1=O as the compound, how does the Potency read?
Its Potency is inconclusive [inhibitor, single point].

CC12CCC(C(=O)NCc3ccc4c(c3)OCO4)(OC1=O)C2(C)C (stereo unspecified) was tested. Which Potency did it give?
The Potency was inconclusive [inhibitor, partial curve].

COc1nc(Cl)cn(-c2ccc(Cl)cc2)c1=O was tested. Which Potency did it give?
Its Potency is inconclusive [inhibitor, single point].

For Cc1ccc(Cn2c(=O)cc(C(=O)O)c3ccccc32)cc1, which Potency is on record?
The Potency was inconclusive [inhibitor, single point].

Which Potency does the source give for CS(=O)(=O)Nc1ccc(C(=O)N2CCCCC2)cc1 here?
Its Potency is inconclusive [inhibitor, single point].

With COc1cc(NC(=O)c2cccnc2)ccc1-c1cc2ccccc2oc1=O as the compound, how does the Potency read?
Its Potency is inconclusive [inhibitor, partial curve].

For CCCCCCOc1ccc(N2C(=O)CC(N3CCC(C(=O)OCC)CC3)C2=O)cc1 (stereo unspecified), which Potency is on record?
Its Potency is inconclusive [inhibitor, single point].

With CCCCCOc1ccc(NC(=O)CSc2cccc3cccnc23)cc1 as the compound, how does the Potency read?
The Potency was inconclusive [inhibitor, partial curve].

How did the Potency turn out when Cc1cc(C)c2c(c1)/C(=N/NS(=O)(=O)c1ccccc1)CCC2 was run?
Its Potency is inconclusive [inhibitor, single point].

Which Potency does the source give for COC(=O)c1c(-c2ccc(C)cc2)csc1NC(=S)NC(=O)c1cc(OC)cc(OC)c1 here?
The Potency was active: 20 µM.

Which Potency does the source give for CC(C)(C)c1cc(NCCCn2ccnc2)n2ncc(-c3ccc(Cl)cc3)c2n1 here?
Its Potency is inconclusive [inhibitor, partial curve].

O=C(Nc1nc2ccccc2n1Cc1ccccc1)c1ccc(COc2ccccc2[N+](=O)[O-])o1 was tested. Which Potency did it give?
Its Potency is inconclusive [inhibitor, full curve].

For Cn1c(=O)cc(SCC(=O)N2CCN(C(=O)c3ccco3)CC2)c2ccccc21, which Potency is on record?
The Potency was inconclusive [inhibitor, single point].

For O=C(CCCc1nc(-c2ccccc2)no1)N1CCOCC1, which “activity, negative = inhibition” value is on record?
The value was inactive: 0.725%.

COc1ccc(CNC(=O)CCCn2nc(C)c([N+](=O)[O-])c2C)cc1 was tested. Which Potency did it give?
The Potency was active: 12.6 µM.

With Cc1ccc(-c2noc(CSc3nnnn3C3CCCCC3)n2)cc1 as the compound, how does the Potency read?
The Potency was active: 14.1 µM.

For CCCNC(=S)N1CCN(C(c2ccccc2)c2ccccc2)CC1, which Potency is on record?
Its Potency is inconclusive [inhibitor, single point].

Which Potency does the source give for CC(C)(C)C(=O)NC(Nc1cccc2cccnc12)C(Cl)(Cl)Cl (stereo unspecified) here?
The Potency was inconclusive [inhibitor, single point].

For O=C(CSc1nc(C2CC2)nc2ccccc12)Nc1ccccc1N1CCOCC1, which “activity, negative = inhibition” value is on record?
Its value is inactive: 2.73%.

Cc1n[nH]c(=S)n(/N=C/c2cccs2)c1=O was tested. Which Potency did it give?
The Potency was inconclusive [inhibitor, single point].

With Cc1ccc(C)c2sc(NC(=O)c3ccc(N4C(=O)CCC4=O)cc3)nc12 as the compound, how does the Potency read?
The Potency was inconclusive [inhibitor, single point].

For Cc1[nH]n(C(N)=S)c(=O)c1C(c1ccccc1)C(C#N)C#N (stereo unspecified), which Potency is on record?
Its Potency is active: 31.6 µM.

Which Potency does the source give for CN(C)c1ccc(S(=O)(=O)NCC(=O)OCC(=O)Nc2cc(Cl)cc(Cl)c2)cc1[N+](=O)[O-] here?
Its Potency is active: 14.1 µM.

Cc1cc(C)n2c(SCC(=O)NC3CCCCC3)nnc2n1 was tested. Which “activity, negative = inhibition” value did it give?
The value was inactive: 8.09%.

For O=C(Nc1cc(Sc2ccccn2)cc([N+](=O)[O-])c1)c1cccc(Cl)c1, which “activity, negative = inhibition” value is on record?
The value was inactive: -8.7%.

With COc1cccc(CCc2nnc(CCC(=O)NC(C)c3c(C)nn(C)c3C)o2)c1 (stereo unspecified) as the compound, how does the “activity, negative = inhibition” value read?
Its value is inactive: 11.9%.

With Cc1ccsc1/C=C1/C(=O)NN(c2ccccc2)C1=O as the compound, how does the Potency read?
Its Potency is inconclusive [inhibitor, single point].

With CC1=C(C(=O)OCc2ccccc2)C(c2cccnc2)c2c(n(C)c(=O)n(C)c2=O)N1 (stereo unspecified) as the compound, how does the Potency read?
Its Potency is inconclusive [inhibitor, single point].

For COCCCn1c(=O)/c(=C\c2ccccc2OC(F)F)s/c1=C(/C#N)C(N)=O, which “activity, negative = inhibition” value is on record?
The value was inactive: 2.46%.

How did the Potency turn out when CSc1ccccc1-n1nnnc1SCC(=O)Nc1ccccc1C was run?
Its Potency is active: 12.6 µM.
